# Test results published in PubChem BioAssay (Tox21).
# “And” between values parts separate entries of the source, which are not always exact repeats. Equal values may be shown once. This is a selection; strong and weak results do not stand in their true shares. Inconclusive results are not listed. The source made the active and inactive calls. Calls follow the shape of the dose curve; as a rule, active = well fitted curve in the direction sought with a large enough effect in the repeat runs; inconclusive = weak or mixed curves; inactive = no such curve, though single readings can be large; an effect the other way counts as inactive or inconclusive.
# Molecular target: Aromatase (Homo sapiens) (UniProt P11511)
# Experiment: qHTS assay to identify aromatase inhibitors (AID 743083); also: nearly all actives have a fitted effect of over 55% in size
# Settings: MCF-7 aro ERE, testosterone-driven ERE luciferase, 24 h
# Potency is read from the fitted curve at half-maximal effect.
# Sequence of UniProt P11511 (P11511 whole entry, looked up): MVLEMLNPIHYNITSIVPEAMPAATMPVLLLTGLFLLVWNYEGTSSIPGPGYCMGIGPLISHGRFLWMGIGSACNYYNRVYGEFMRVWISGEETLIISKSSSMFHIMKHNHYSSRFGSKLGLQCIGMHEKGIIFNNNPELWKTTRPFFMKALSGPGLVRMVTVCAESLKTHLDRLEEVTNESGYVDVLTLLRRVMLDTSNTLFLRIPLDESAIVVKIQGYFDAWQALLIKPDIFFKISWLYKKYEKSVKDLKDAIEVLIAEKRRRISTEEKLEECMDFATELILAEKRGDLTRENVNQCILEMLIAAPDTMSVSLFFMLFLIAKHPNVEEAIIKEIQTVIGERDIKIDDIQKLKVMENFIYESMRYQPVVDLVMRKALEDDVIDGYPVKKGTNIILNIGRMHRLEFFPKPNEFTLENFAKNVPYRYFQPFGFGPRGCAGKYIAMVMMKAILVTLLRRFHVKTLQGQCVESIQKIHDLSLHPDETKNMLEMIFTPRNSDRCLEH
row,SMILES,Potency
1,CC(C)(C#N)c1cc(Cn2cncn2)cc(C(C)(C)C#N)c1,active: 335 nM and active: 119 nM
2,Clc1ccc(COC(Cn2ccnc2)c2ccc(Cl)cc2Cl)c(Cl)c1 (centres undefined),active: 7.17 µM
3,Clc1cccc(C(c2ccc3nc[nH]c3c2)n2ccnc2)c1 (centres undefined),active: 0.422 µM

# Molecular target: Voltage-gated inwardly rectifying potassium channel KCNH2 (Homo sapiens) (UniProt Q12809)
# Experiment: Human Ether-a-go-go-Related Gene (hERG) channel small molecule antagonists: fluorescence cell-based qHTS assay (AID 1671200); also: nearly all actives have a fitted effect of over 50% in size
# Settings: hERG-U2OS cells, FluxOR thallium flux fluorescence
# Outline: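 U2OS cells expressing the channel were plated at 1000 cells/well, incubated overnight at 37 C, then loaded with FluxOR II thallium-sensitive dye for 1 h at room temperature in the dark, with a further 10 min at room temperature before stimulation.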
# Sequence of UniProt Q12809 (Q12809 whole entry, looked up): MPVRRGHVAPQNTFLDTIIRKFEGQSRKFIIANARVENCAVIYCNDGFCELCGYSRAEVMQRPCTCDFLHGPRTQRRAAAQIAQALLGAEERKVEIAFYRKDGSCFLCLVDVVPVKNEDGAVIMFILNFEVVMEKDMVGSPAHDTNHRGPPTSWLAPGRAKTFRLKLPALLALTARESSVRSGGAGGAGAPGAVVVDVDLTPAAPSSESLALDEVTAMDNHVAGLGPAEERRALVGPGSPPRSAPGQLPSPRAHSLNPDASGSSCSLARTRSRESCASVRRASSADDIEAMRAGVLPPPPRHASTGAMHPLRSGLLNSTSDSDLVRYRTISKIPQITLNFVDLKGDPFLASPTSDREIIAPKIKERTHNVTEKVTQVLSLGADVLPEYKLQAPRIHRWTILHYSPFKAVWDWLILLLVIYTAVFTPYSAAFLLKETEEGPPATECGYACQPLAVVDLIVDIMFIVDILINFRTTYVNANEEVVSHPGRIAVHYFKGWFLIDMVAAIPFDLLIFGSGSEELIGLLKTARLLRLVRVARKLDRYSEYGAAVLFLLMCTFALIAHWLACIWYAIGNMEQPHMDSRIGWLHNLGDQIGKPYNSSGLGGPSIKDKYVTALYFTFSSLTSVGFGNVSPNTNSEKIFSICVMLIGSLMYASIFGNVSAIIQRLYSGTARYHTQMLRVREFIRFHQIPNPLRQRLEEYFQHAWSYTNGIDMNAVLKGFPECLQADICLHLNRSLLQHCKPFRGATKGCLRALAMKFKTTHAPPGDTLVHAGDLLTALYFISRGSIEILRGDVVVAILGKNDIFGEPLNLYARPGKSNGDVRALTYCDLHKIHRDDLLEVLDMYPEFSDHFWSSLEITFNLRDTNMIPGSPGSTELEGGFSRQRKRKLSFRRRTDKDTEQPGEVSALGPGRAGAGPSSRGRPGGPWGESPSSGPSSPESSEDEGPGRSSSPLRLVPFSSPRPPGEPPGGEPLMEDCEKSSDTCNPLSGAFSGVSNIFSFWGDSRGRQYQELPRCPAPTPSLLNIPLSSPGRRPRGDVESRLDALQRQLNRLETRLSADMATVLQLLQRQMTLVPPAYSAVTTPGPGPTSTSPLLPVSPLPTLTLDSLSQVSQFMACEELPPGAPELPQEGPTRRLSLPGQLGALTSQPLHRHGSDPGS
row,SMILES,Potency
1,Cc1ccccc1C(OCCN(C)C)c1ccccc1 (centres undefined),active: 21.9 µM and active: 24.5 µM and active: 16.9 µM
2,CCN(CC)CCOc1ccc(/C(=C(\Cl)c2ccccc2)c2ccccc2)cc1,active: 3.54 µM and active: 2.39 µM
3,C(=C\c1ccccc1)/CN1CCN(C(c2ccccc2)c2ccccc2)CC1,active: 0.756 µM
4,CCN(CC)CCOC(=O)C1(C2CCCCC2)CCCCC1,active: 9.52 µM
5,CN1CCC(=C2c3ccccc3C=Cc3ccccc32)CC1,active: 10.7 µM
6,O=c1n(CCCN2CCN(c3cccc(Cl)c3)CC2)nc2ccccn12,active: 12.3 µM and active: 8.49 µM
